These results are taken from the supplement of paper PMC8183993.

Structures can show the parent of a compound that is named as a salt. ± gives the standard deviation of the averaged measurements. The full ranking holds about 3,100 compounds; the median of “mean cytoplasmic OPP incorporation (global translation) relative to DMSO” is about 100, and the lowest 2% start at about 56. Some of the results follow.

This assay concerns U2OS. Nature of the assay: mean cytoplasmic OPP incorporation (global translation) relative to DMSO (% of DMSO); higher = more protein synthesis. The following applies: 10 µM; 24 h. Here is the method:
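Primary image-based screen in U2OS cells: compounds at 10 uM for 24 h, then a 1 h o-propargyl-puromycin (OPP) pulse, click labelling, and high-throughput microscopy. Mean cytoplasmic OPP intensity and nuclei count were normalised to DMSO wells within each plate (DMSO = 100) and averaged over triplicate plates.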
On to `FC(F)(F)c1cccc(C2=CCN(CCc3ccc4ccccc4c3)CC2)c1` [Xaliproden hydrochloride], for which the “mean cytoplasmic OPP incorporation” value was 102.

Turning to `O=c1ccc2[nH]cc(C3=CCNCC3)c2[nH]1`, the “mean cytoplasmic OPP incorporation” value was found to be 98.3.

Take `O=C(O)/C=C/CO` [trans-4-Hydroxycrotonic acid]: the “mean cytoplasmic OPP incorporation” value is 105.

In the case of `Cc1cc2c(C(C)C)c(O)c(O)c(C=O)c2c(O)c1-c1c(C)cc2c(C(C)C)c(O)c(O)c(C=O)c2c1O` [Gossypol], the “mean cytoplasmic OPP incorporation” value turned out to be 91.6 ± 2.5.

In the case of `CC(C)(OO)c1ccccc1` [Cumene hydroperoxide], the “mean cytoplasmic OPP incorporation” value was determined as 98.2.

Turning to `O=c1[nH]c2ccccc2n1C1CCN(CCCC(c2ccc(F)cc2)c2ccc(F)cc2)CC1` [Pimozide], the “mean cytoplasmic OPP incorporation” value was determined as 111 ± 3.8.

With `CC1=C2C[C@H]3[C@@H](CC=C4C[C@@H](O)CC[C@@]43C)[C@@H]2CC[C@]12O[C@@H]1C[C@H](C)CN[C@H]1[C@H]2C` [Cyclopamine], the “mean cytoplasmic OPP incorporation” value was found to be 101.

In the case of `CC(=O)NCCc1c[nH]c2ccccc12` [N-Acetyltryptamine], the “mean cytoplasmic OPP incorporation” value was 101.

Regarding `CCN1CC2(OC(=O)c3ccccc3NC(C)=O)CCC(OC)C34C1C(CC23)C1(O)CC(OC)C2CC4C1(O)C2OC` (centres undefined) [Lappaconite HBr], the “mean cytoplasmic OPP incorporation” value turned out to be 109.

Consider `N[C@H](C(=O)O)c1cc(O)no1` [Ibotenic acid], for which the “mean cytoplasmic OPP incorporation” value was found to be 97.4.

`C[C@]12CC[C@@H](O)C[C@H]1CC[C@@H]1[C@@H]2CC[C@]2(C)C(=O)CC[C@@H]12` [3-alpha-Hydroxy-5-beta-androstan-17-one]: the “mean cytoplasmic OPP incorporation” value was determined as 89.8.

`C#CCN(C)[C@H](C)Cc1ccccc1` [Selegiline hydrochloride]: the “mean cytoplasmic OPP incorporation” value worked out at 102.

As to `COc1cc(C(=O)N2CC[C@@H](O)[C@@H](N)C2)cc2nc(-c3cc4ccccc4n3CC3CC3)n(C)c12`, the “mean cytoplasmic OPP incorporation” value was determined as 110.

As for `CN1CCN(c2nc3ccccc3nc2Cl)CC1`, the “mean cytoplasmic OPP incorporation” value is 95.9.

In the case of `CN(C)C(=O)Oc1ccc[n+](C)c1` [Pyridostigmine iodide], the “mean cytoplasmic OPP incorporation” value was determined as 104.

`C[C@@H]1O[C@@H](O[C@@H]2C=C3CC[C@@H]4[C@H](CC[C@]5(C)[C@@H](c6ccc(=O)oc6)CC[C@]45O)[C@@]3(C)CC2)[C@H](O)[C@H](O)[C@H]1O` [Proscillaridin A]: the “mean cytoplasmic OPP incorporation” value is 17.5.

For the compound `CNC(=O)Oc1ccc2c(c1)[C@]1(C)CCN(C)[C@@H]1N2C` [Eserine hemisulfate salt], the “mean cytoplasmic OPP incorporation” value is 101.

On to `Cc1onc(O)c1C[C@H](N)C(=O)O`, for which the “mean cytoplasmic OPP incorporation” value turned out to be 94.3.

Regarding `O=C(O)CCC(CP(=O)(O)O)C(=O)O` (centres undefined) [PMPA (NAALADase inhibitor)], the “mean cytoplasmic OPP incorporation” value amounted to 105.

`CC(C)(C)OC(=O)c1ncn2c1[C@@H]1CCCN1C(=O)c1c(Br)cccc1-2` [Bretazenil]: the “mean cytoplasmic OPP incorporation” value turned out to be 104.

For the compound `CN(C)C(=O)Oc1cccc([N+](C)(C)C)c1` [Neostigmine bromide], the “mean cytoplasmic OPP incorporation” value is 102.

Regarding `CN1[C@@H]2CC[C@H]1CC(OC(=O)N1Cc3ccccc3NC1=O)C2` (some centres undefined) [DAU 5884 hydrochloride], the “mean cytoplasmic OPP incorporation” value turned out to be 101.

Regarding `COc1ccc(C(CN(C)C)C2(O)CCCCC2)cc1` (centres undefined) [Venlafaxine], the “mean cytoplasmic OPP incorporation” value stood at 101.

In the case of `CCc1c(C(=O)C(N)=O)c2c(OCC(=O)O)cccc2n1Cc1ccccc1`, the “mean cytoplasmic OPP incorporation” value is 100.

As for `CC(=O)[C@H]1CC[C@H]2[C@@H]3CC[C@@H]4CC(=O)CC[C@]4(C)[C@H]3CC[C@]12C` [5b-Pregnan-3,20-dione], the “mean cytoplasmic OPP incorporation” value amounted to 98.1.

For `CCNCC(O)c1cccc(O)c1` (centres undefined) [Etilefrine hydrochloride], the “mean cytoplasmic OPP incorporation” value is 104.

In the case of `c1ccc(CC(c2ccccc2)N2CCCCC2)cc1` (racemic) [(±)-1-(1,2-Diphenylethyl)piperidine maleate], the “mean cytoplasmic OPP incorporation” value is 109.

Take `COc1ccc2[nH]cc(C3=CCNCC3)c2c1`: the “mean cytoplasmic OPP incorporation” value is 101.

For `CCOC(=O)c1ncc2[nH]c3ccc(OCc4ccccc4)cc3c2c1COC`, the “mean cytoplasmic OPP incorporation” value was determined as 106.

Take `CC(C)(N)Cc1ccccc1` [Phentermine hydrochloride]: the “mean cytoplasmic OPP incorporation” value was found to be 85.4.

Consider `NP(N)(=O)NC(=O)c1ccc(F)cc1` [Flurofamide], for which the “mean cytoplasmic OPP incorporation” value came to 99.6.

`Clc1cccc(SC2CCNCC2)n1` [Anpirtoline hydrochloride]: the “mean cytoplasmic OPP incorporation” value turned out to be 115.

As to `CC(C)C[C@H]1C(=O)N2CCC[C@H]2[C@]2(O)O[C@](NC(=O)[C@@H]3C=C4c5cccc6[nH]c(Br)c(c56)C[C@H]4N(C)C3)(C(C)C)C(=O)N12` [Bromocriptine mesylate], the “mean cytoplasmic OPP incorporation” value amounted to 107.

Take `CC(C)C[C@H]1C(=O)N2CCC[C@H]2[C@]2(O)O[C@](NC(=O)[C@@H]3C=C4c5cccc6[nH]c(Br)c(c56)C[C@H]4N(C)C3)(C(C)C)C(=O)N12` [Bromocryptine mesylate]: the “mean cytoplasmic OPP incorporation” value was found to be 107.

On to `c1ccc(CCCN2CCN(CCOC(c3ccccc3)c3ccccc3)CC2)cc1`, for which the “mean cytoplasmic OPP incorporation” value worked out at 98.2.

Consider `CN1[C@@H]2CC[C@H]1C[C@@H](OC(=O)C(CO)c1ccccc1)C2` (some centres undefined) [Atropine sulfate monohydrate], for which the “mean cytoplasmic OPP incorporation” value is 96.9.

`CN1[C@@H]2CC[C@H]1C[C@@H](OC(=O)C(CO)c1ccccc1)C2` (some centres undefined) [Atropine]: the “mean cytoplasmic OPP incorporation” value was determined as 108.

Consider `CC[C@@H]1[C@@H](C)O[C@@](O)([C@@H](C)[C@H](O)[C@H](C)[C@H]2OC(=O)/C=C/C=C/[C@H](C)[C@@H]([C@@H](C)[C@@H](O)[C@H](C)[C@@]3(O)C[C@@H](O[C@H]4C[C@H](O)[C@H](O)[C@H](C)O4)[C@H](CC)[C@@H](C)O3)OC(=O)/C=C/C=C/[C@@H]2C)C[C@H]1O[C@H]1C[C@H](O)[C@H](O)[C@H](C)O1` [Azalomycin-B], for which the “mean cytoplasmic OPP incorporation” value is 104.

Regarding `CC(C)NCC(O)c1ccc(N)c(C#N)c1` (centres undefined) [Cimaterol], the “mean cytoplasmic OPP incorporation” value came out at 101.

With `CCC1=C[C@H]2CN3CCc4c([nH]c5ccccc45)[C@](C(=O)OC)(C2)[C@H]13` [Catharanthine], the “mean cytoplasmic OPP incorporation” value worked out at 106.

Take `O=C(Cc1ccc(Cl)c(Cl)c1)N1CCCCC1CN1CCCC1` (centres undefined): the “mean cytoplasmic OPP incorporation” value was 104.

As to `C=C(C)CN1CC[C@@]23c4c5ccc(O)c4O[C@H]2c2[nH]c4ccccc4c2C[C@]3(O)C1C5` [SDM25N hydrochloride], the “mean cytoplasmic OPP incorporation” value was determined as 95.8.

In the case of `c1ccc(C2CC2)c(OCC2=NCCN2)c1` [Cirazoline hydrochloride], the “mean cytoplasmic OPP incorporation” value was 101.

With `CNC(C)(C)Cc1ccccc1` [Mephentermine hemisulfate], the “mean cytoplasmic OPP incorporation” value came out at 99.4.
